Measurements reported in the RNAGym collection of RNA variant scans (doi:10.1073/pnas.2313332121).
Variants at the background level are over-represented here.

B1: TPR 5TU (parent)
chain: GGAUCUUCUCGAUCUAACAAAAAAGACAAAUCUGCCACAAAGCUUGAGAGCAUCUUCGGAUGCAGAGGCGGCAGCCUUCGGUGGCGCGAUAGCGCCAACGUUCUCAACUAUGACACGCAAAACGCGUGCUCCGUUGAAUGGAGUUUAUCAUG

Variants of: B1
Assay: polymerase ribozyme fitness, log enrichment relative to wild type (log ratio); higher = more active; in vitro selection for triplet polymerase activity
In short: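 Both subunits of a heterodimeric triplet polymerase ribozyme were given their own mutant library, built by PCR and transcribed. Each library was annealed with a biotinylated primer, the partner subunit and triplets, incubated frozen at −7 °C, and its extended constructs gel-excised, captured on streptavidin beads and amplified by RT-PCR, all in one round done in triplicate. Fitness is the logarithm of genotype enrichment relative to wild-type enrichment, with replicates averaged by inverse-variance weighting. That logarithm is base 2, and Illumina-sequenced genotypes needed ≥10 input reads and ≥1 read per output.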

Point of comparison: C38U U45A G92C, “polymerase ribozyme fitness (log ratio)” value -4.13. Against it:
- A39C A52C G84U C108U — lower, ≤ -4.2
- C38U A60G C72A A91G C123U — lower, ≤ -4.2
- A39C G42A G68A A119G C123U A138G — lower, ≤ -4.2
- A40C C76G U151A — lower, ≤ -4.2
- A40G G59C C79U C85U U151G — lower, ≤ -4.2
- A40C C69A C76A — lower, ≤ -4.2
- A39C U56G A73G — higher, -3.36
- C38U A47C A49C A91C U139A — lower, ≤ -4.2
- A39G C79U G94A — lower, ≤ -4.2
- A40C U148A — higher, -3.51
- A40C G70C C103G — lower, ≤ -4.2
- A39U A66G A91G G152U — lower, ≤ -4.2
- A39G C51U G83A C95U A142C — lower, ≤ -4.2
- A39C A137U — lower, ≤ -4.2
- C38G C75U C93G — within 0.2 log units, -4.16
- A39G G88U — lower, ≤ -4.2
- A39U G68U G86U A120G — lower, ≤ -4.2
- A40G U53A A73U C93G A137U — lower, ≤ -4.2
- A39C G143U — within 0.2 log units, -4.15
- C38G G74U — lower, ≤ -4.2
- C38G A66G U77G G83U G133C U144A — lower, ≤ -4.2
- A39G A97U — higher, -2.96
- A39U G50U G83A C96G C103U U135G — lower, ≤ -4.2
- A39C C87G C96G C99G G136U A137C G140U G141C — lower, ≤ -4.2
- A39U G59C G84A G92C A138U U139A — lower, ≤ -4.2
- A40G A60C G84A C96U U101G C105G U144C — lower, ≤ -4.2
- C38U G74A U90G U144C — lower, ≤ -4.2
- A40C G80U C85G A89G C118A — lower, ≤ -4.2
- C38U G81A C99G A120U G124C — higher, -3.02
- C38G G58C G84A A119U — higher, -0.795
- A39U G71C C95G G143A U144C — lower, ≤ -4.2
- C38U A73G G83U A91U A97U A110G — lower, ≤ -4.2
- A40C U53G A66G A119G — lower, ≤ -4.2
- A40G C105U A115U A138G — lower, ≤ -4.2
- A39G U55G G84A U135G — lower, ≤ -4.2
- A40G G92A U101G G117C — lower, ≤ -4.2
- C38U C93A A119C A142U — higher, -3.54
- A40G C95A U104G A142G — higher, -3.8
- C38A G59A U77A U145A A150C — lower, ≤ -4.2
- C38U C87U C95U U144A — higher, -1.21
- C38A U44G G81A C93U C114A G124U U134G — lower, ≤ -4.2
- C38A A60U A73G A89U U104C U109C C149A — lower, ≤ -4.2
- A39U A49C A137G — lower, ≤ -4.2
- C38U C87U G94U — higher, -1.73
- A39U C54U U61A C93U A106U — lower, ≤ -4.2
- A39U G48C C87G U90C A120G — lower, ≤ -4.2
- A40G C87U C103G — lower, ≤ -4.2
- A39U C57A G68A A110G G133U — lower, ≤ -4.2
- A39C U135G G143C A150G — lower, ≤ -4.2
- A39U U55A A64G — lower, ≤ -4.2
- A39C U61A G81C A89U G94C A106C U109G C125U U134C — lower, ≤ -4.2
- A39G G141C — higher, -2.65
- A40C C85G C87G G94U A97G — lower, ≤ -4.2
- C38G C54A G74U A106U G140U — lower, ≤ -4.2
- A40G G42C G94A — lower, ≤ -4.2
- A40G G83U G100C — lower, ≤ -4.2
- A40G C85A G133C G136A — higher, -3.86
- A40C G94U C95G — higher, -3.87
- A39C C79G G83U A97C G140U U146A — lower, ≤ -4.2
- A40C C93G G94U C99G C114U C131A — lower, ≤ -4.2
- A39G A73G C75U C76G C93A — lower, ≤ -4.2
- C38U G58A G59C C69A C79A G80A U82C U90C C96A U109G G112U — lower, ≤ -4.2
- C38A G42C U55G C69U U90G U146C — lower, ≤ -4.2
- A39C A73U C87G C132A — lower, ≤ -4.2
- A40C G59A A73U C87A U90A U101G C129G G143C — lower, ≤ -4.2
- C38G U56A G74C U90G C125U — lower, ≤ -4.2
- A39G G83A U101A — lower, ≤ -4.2
- A40G A49U A60C C76A C96U U134G — lower, ≤ -4.2
- C38G A49C A66U C79U A97G G136A — lower, ≤ -4.2
- C38U A49C — lower, ≤ -4.2
- A39U G88C A115C G124A — lower, ≤ -4.2
- C38G G92A C149A — lower, ≤ -4.2
- A39C G84A — higher, -3.26
- A40G C85G U111G U151C — lower, ≤ -4.2
- A40C G88U C96U A122U U127G U148A A150U — lower, ≤ -4.2
- A40U A41G G42U U45A U53A A73G C87A G143U — lower, ≤ -4.2
- A40C A60G U61G C93A G152U — lower, ≤ -4.2
- C38U G46A C95A — higher, -0.705
- A40C U90G A107U A150G — lower, ≤ -4.2
- A40C U44A A60U G133C G136A G141C — lower, ≤ -4.2
- A39G A40C A73U C75A U82A C93A C103A A107U C131U — lower, ≤ -4.2
- A39C A41C U56A C93G A98U U101C C123U — lower, ≤ -4.2
- A39C G84A U144A — higher, -2.69
- A39U A40C A52C G140C — lower, ≤ -4.2
- C38U C43U — lower, ≤ -4.2
- A39C C85G C87A U90C A137U — lower, ≤ -4.2
- C38U C85G C93U G117U G128C — lower, ≤ -4.2
- A39G G42A G48C A49C G83U C87G C96A A107U — lower, ≤ -4.2
- A39C A47C C75A A120G — lower, ≤ -4.2
- C38U C95A C108U C132U — higher, -3.39
- A39U C93A C105G A113U C114G — lower, ≤ -4.2
- C38U C69U C76U G141A A142G — lower, ≤ -4.2
- C38A C76A G92U G136A G152U — lower, ≤ -4.2
- A39C U55G A91G A142G — lower, ≤ -4.2
- A39U C85U U90G C118U C125U — lower, ≤ -4.2
- A39U C79A C125U U135G — lower, ≤ -4.2
- A39C G48U C85U C105U C118A — lower, ≤ -4.2
- A40C C95U — higher, -0.646
- A39C A89U C116U — higher, -2.02
- A40C C57U U82C C87A U101C C114A — lower, ≤ -4.2
- C38A G84A U148G — lower, ≤ -4.2
- C38U U56A C108A A113U — lower, ≤ -4.2
- C38A G80C G88C A110G — lower, ≤ -4.2
- C38U C96G G152U — higher, -3.85
- C38A G86C — higher, -3.27
- A39U A40C G42U G48A A60U U82G C85A U104A U127C — lower, ≤ -4.2
- C38U U45A G68C U102G A138G — lower, ≤ -4.2
- A39C A47G G59U G92U C114A G128A U139G A150C — lower, ≤ -4.2
- A39G A91G A137G — lower, ≤ -4.2
- A39G A49C G65C A66C C72U U77A — lower, ≤ -4.2
- C38U G71U G80A C85G — lower, ≤ -4.2
- A39U U55G U56A C96U C103U A110C — lower, ≤ -4.2
- C38A C76A C79G G88U C96A G136A — lower, ≤ -4.2
- C38G U44G U56A C69U C93G U144G — lower, ≤ -4.2
- C38U G48A C87A — lower, ≤ -4.2
- C38U A66C C72U C79A C96A G117A — lower, ≤ -4.2
- A40C G58C U77A — lower, ≤ -4.2
- C38U G68A U102G U145C — lower, ≤ -4.2
- A39U A49C U61A C96A — lower, ≤ -4.2
- C38A C43U U56G C75G G88A A89C U111C G143U — lower, ≤ -4.2
- A40G A41C A52G G71U A107G U111G U139C U146G C149A U151G — lower, ≤ -4.2
- A39C U44G A52G U55G G65U G74C C85U — lower, ≤ -4.2
- A39G G83A G117U U144C — lower, ≤ -4.2
- C38U C79U G83U A89U G133A U148G — lower, ≤ -4.2
- A40G G58C C79G C87U G136U A147U G152A — lower, ≤ -4.2
- C38U G81C U111G A138G — lower, ≤ -4.2
- A39G A137G — higher, -3.57
- A40G G70C C85A — lower, ≤ -4.2
- C38A G48C G71U — lower, ≤ -4.2
- C38U C57U A91G U127G G143A — lower, ≤ -4.2
- A40C C43U C75U C85G C93G C132U U146C — lower, ≤ -4.2
- C38G C75G G83C C105U A138G G141U — lower, ≤ -4.2
- A40U C43G C72A C79A U101A — lower, ≤ -4.2
- A40C G48A G58A C87U — higher, -2.55
- C38U C69U A91U C125U G141A — lower, ≤ -4.2
- C38U G46C C79G A97C U109G — lower, ≤ -4.2
- A39C C93U G143U — lower, ≤ -4.2
- A40C C85A — higher, -2.39
- A39C G62A A66U U134G G143A — lower, ≤ -4.2
- C38G A66U G94A C108U — lower, ≤ -4.2
- A40G A41G U53G C85A U127G C131U G143A — lower, ≤ -4.2
- A40G U56A G83C C125U G141A — lower, ≤ -4.2
- C38A U53C G67U C93G A106U C118A A120U — lower, ≤ -4.2
- A39G A52C C87A G100U — lower, ≤ -4.2
- A40C G80C G86C G128A — lower, ≤ -4.2
- C38U C79A U82G C105G A138C G140A — lower, ≤ -4.2
- C38U U56A G70C A91U U104A A107C U145A — lower, ≤ -4.2
- C38U A52G C57U G67U A89U G92A — lower, ≤ -4.2
- C38U A40C G80U C95U — higher, -1.06
- C38A C51U C87G C116G A120C A122C — lower, ≤ -4.2
- C38G A64G G74A G94U A97U G100U — lower, ≤ -4.2
- A39C C54A G65C C93A G124U A138C — lower, ≤ -4.2
- A40C A73C C95A — lower, ≤ -4.2
- A40C U45A G50A A73U G92A — lower, ≤ -4.2
- A39C A52G A64G G86U A137C — lower, ≤ -4.2
- C38A A73G C79A C114G G124U G140U U148G — lower, ≤ -4.2
- A39C C63A A64U G84A C93G — lower, ≤ -4.2
- A40C G50A C72U U78C C87U — lower, ≤ -4.2
- C38U U56A G88A C108U G124A U145G — lower, ≤ -4.2
- A39G A64U U78A C96G A150U — lower, ≤ -4.2
- A39U G58U A60U G65A G74C C75G C87A — lower, ≤ -4.2
- A39U C51U C54U A60G U82G A98C — higher, -3.88
- A39U A52C C63G A121C — lower, ≤ -4.2
- A39U G86A — higher, -3.06
- C38U G92A U146A — higher, -2.92
- A40G U77G G80A C93A A107G A120C A121U — lower, ≤ -4.2
